This assay has as its system Plasmodium falciparum. Description: Primary screen in NF54 nanoGlo assay, in single point, at 2uM, 72h; a lower Z score goes with more inhibition. Conditions: timepoint 72 hour. Type of assay: functional, Erythrocyte.

“And” between values parts separate entries of the source, which are not always exact repeats. Equal entries are not always repeated. Out of some 150,000 compounds screened, about 540 (0.36%) showed an effect of 50% or more. The list shows a part of the results.

Broadly, the % Inhibition is the relative decrease from the control value, in per cent. With `O=C(NCCOc1cc(N2CCOCC2)ncn1)C1CCCC1`, the “% Inhibition” value amounted to 8% and the Z score was -1.07.
For `COc1ccc(-c2n[nH]c(C3CCCCC3)n2)cn1`, in that order: -20% and 1.84.
The matching figures for `CCCn1cc(CCNS(=O)(=O)Cc2cc(C)ccc2C)c2cccnc21`: -9% and 0.99.
With `O=C(Nc1ccc(-c2cc(NC(=O)c3ccccc3)n(-c3ccc(Oc4ccccc4)c(S(=O)(=O)O)c3)n2)cc1)c1ccccc1`, the “% Inhibition” value was -12% and the Z score is on record as 2.39.
The matching figures for `O=C(NCc1nccs1)c1nn(Cc2ccccc2)c2c1CN(Cc1cccc3nccnc13)CC2`: -14% and 1.59.
Take `O=C(Nc1ccccc1C(F)(F)F)N1CCc2c([nH]c3ccc(Cl)cc23)[C@H]1c1ccc(F)cc1`: the “% Inhibition” value is listed as -10% and the Z score amounted to 1.44.
The matching figures for `Cc1nc(C)c(C)c(NCc2cc(CC(C)C)on2)n1`: 2% and -0.18.
Consider `CC(C)N(Cc1cnn(C)c1)C(=O)c1csc(-c2ccco2)n1`, for which the “% Inhibition” value is reported as -24% and the Z score turned out to be 2.16.
The matching figures for `CCCC(=O)NS(=O)(=O)c1c(C)nn(C)c1C`: -45% and 5.3.
The matching figures for `CC(C)(C)NC(=O)CN1CCC(CNc2ccc(C#N)nc2)CC1`: -12% and 1.21.
For `Cc1cnn([C@H]2CCN(S(=O)(=O)c3cc(Cl)sc3Cl)C2)c1`, in that order: 0% and 0.01.
With `COCc1nsc(N2CCC(c3c(F)cccc3F)CC2)n1`, the “% Inhibition” value turned out to be 30% and the Z score is listed as -4.27.
For `COc1ccc(C(=O)N2CCC3(CC2)C[C@@H](c2nc(C)no2)N(C)C3)c(OC)c1`, in that order: -11% and 1.39.
For `CCN1CCN(c2c(CN(CC(C)C)C(=O)C3CCCCC3)c(C)nn2-c2cccc(F)c2)CC1`, in that order: -11% and 1.56.
For `C=C(C)CN(C)C(=O)c1cc(O)nc(C(C)C)c1`, in that order: 2% and -0.25.
`CCOc1cc2c(cc1OCC)[C@H](c1ccc3ccccc3c1)NCC2`: the “% Inhibition” value is listed as 12% and the Z score is -1.57.
`CCc1c(C)noc1NC(=O)CCc1ccnn1C`: the “% Inhibition” value is given as -2% and the Z score is on record as 0.35.
For the compound `NC(=O)[C@@H]1C[C@@H](O)CN1C(=O)CCc1ccc(F)cc1`, the “% Inhibition” value is on record as -11% and the Z score is recorded as 1.87.
The matching figures for `COC1CCCC(CC(=O)NCc2nnc(C3CC3)o2)C1` (configuration not stated): 4% and -0.73.
For `Cc1cc(NC(=O)CNC2C(C)CCN(C(=O)OC(C)(C)C)C2C)n(C(C)(C)C)n1` (configuration not stated), in that order: 33% and -4.84.
For `Cc1cccc(CN(Cc2ccc3cn[nH]c3c2)Cc2ccccn2)c1`, in that order: -28% and 3.28.
Regarding `CCN1CCN(c2nc(C)c(C#N)cc2Cl)CC1=O`, the “% Inhibition” value was -10% and the Z score amounted to 1.56.
For `CCCCC(N)C(=O)N1CCC2OCCCC2C1` (configuration not stated), in that order: -9% and 1.01.
In the case of `COc1ccc(OC)c(CNc2cc[nH]n2)c1`, the “% Inhibition” value is -5% and the Z score was 0.8.
The matching figures for `CCN(C(=O)[C@H]1CCCN(S(=O)(=O)c2ccc3c(c2)NC(=O)CO3)C1)c1ccccc1`: 4% and -0.69.
The matching figures for `CC(C)(F)c1cc(NS(=O)(=O)c2cncc(F)c2)no1`: -18% and 3.02.
The matching figures for `CCc1cc(Br)cc2c1N(C(=O)c1ncn(C)n1)CCC2`: 2% and -0.44.
For `CN(CCc1ccccn1)Cc1cc2ccc(F)cc2n(CCN2CCCCC2)c1=O`, the “% Inhibition” value is on record as -18% and the Z score was 2.13.
For `COC(=O)C[C@@H]1Oc2ccccc2N(CCn2cnnc2C)C1=O`, in that order: -15% and 1.37.
The matching figures for `C[C@@H](C(=O)Nc1nc(-c2ccccn2)cs1)n1nc2c(cc1=O)CCC2`: 35% and -1.56.
For `Cc1ccc(-n2nnc(-c3nc(C)c(C(=O)NCc4ccco4)s3)c2C)cc1`, the “% Inhibition” value was -8% and the Z score turned out to be 1.43.
For `COc1ccc(-n2nc(C)c3c2NC(=O)C[C@@H]3c2cc(Cl)ccc2F)nn1`, in that order: 1% and -0.07.
For `COc1ccc(-c2noc3nc(C4CC4)cc(C(=O)Nc4c(C)noc4C)c23)cc1`, in that order: 28% and -3.14.
For `CC(C)(C)OC(=O)NC1CC(NCC(O)c2ccco2)C12CCC2` (configuration not stated), in that order: 0% and 0.02.
For the compound `Cc1cc(C)nc(NCCC(=O)NCCc2nccs2)n1`, the “% Inhibition” value is recorded as -18% and the Z score amounted to 2.47.
The matching figures for `CC(C)CC(=O)N1CCC2(CC1)NC(=O)c1cc(Cl)ccc1N2`: -9% and 1.79.
For `CCS(=O)(=O)N(C)CCCNc1nccc2oc(C)cc12`, in that order: -2% and 0.18.
The matching figures for `CC[C@H]1COC(C)(C)CN1c1cc(C)nc(C)n1`: 6% and -0.71.
Take `CO[C@@]12CC[C@@H](OCCO)C[C@@H]1N(Cc1cc(C)ccc1F)CC2`: the “% Inhibition” value amounted to 3% and the Z score was -0.35.
The matching figures for `Cc1noc(C(=O)Nc2ccccc2C(C)C)n1`: -4% and 0.39.
Consider `CC(C)[C@H](Nc1ccc2nccnc2n1)c1nnc2n1CCC2`, for which the “% Inhibition” value was 32% and the Z score is given as -0.29.
The matching figures for `CCOC[C@H](C)OC(=O)c1cnc(C)nc1C`: 2% and -0.29.
The matching figures for `CS(=O)(=O)Nc1cccc2c1CCN(CC1(C(F)(F)F)CC1)C2`: -7% and 0.86.
The matching figures for `Nc1ncnc(NCc2cccc(Cn3ccnc3)c2)c1Cl`: 2% and -0.29.
On to `CCC[C@](C)(O)C(=O)Nc1cccc(C)c1O`, for which the “% Inhibition” value was found to be 7% and the Z score was -1.31.
For `CN(C)C(=O)c1ccc(CNC(=O)N(C)Cc2ncon2)o1`, in that order: 19% and -2.39.
On to `O=C(NCCOc1ccccc1)NCCOc1ccccc1`, for which the “% Inhibition” value turned out to be 1% and the Z score was -0.22.
The matching figures for `CCN1CCN(C(=O)Nc2cc(C)ccc2OC)[C@H]2CS(=O)(=O)C[C@H]21`: 3% and -0.39.
For `Cc1ccc2[nH]c3c(=O)n(CCC(=O)N4CCN(Cc5ccc6c(c5)OCO6)CC4)cnc3c2c1`, in that order: 3% and -0.57.
The matching figures for `CC(NC(=O)NC(C)c1nc(C2CCCCC2)no1)c1cnn(C)c1` (configuration not stated): 22% and -2.61.
For the compound `COc1cccc(C2=CCN(c3ccccc3O)C(=O)N2)c1`, the “% Inhibition” value is -8% and the Z score is 1.11.
For the compound `COc1ccc(CN2CCN(c3nc(-c4cccs4)c4c(N)n(-c5cccc(C)c5)nc4n3)CC2)cc1`, the “% Inhibition” value is reported as -5% and the Z score is given as 0.96.
As for `O=C(c1ccc(=O)[nH]c1)N1CC[C@H](c2ncon2)C1`, the “% Inhibition” value was -12% and the Z score was determined as 2.1.
Take `Cc1ccccc1-c1cnc(NC(=O)N2CCCN(C)CC2)s1`: the “% Inhibition” value was -7% and the Z score is 0.93.
For `CCC(NC(C)c1ccc(Cl)s1)c1ccncc1` (configuration not stated), in that order: -2% and 0.23.
The matching figures for `O=C(NCc1ccc(F)cc1)[C@H]1CCN(c2cn[nH]c(=O)c2)C1`: -8% and 1.47.
For `CN1CCO[C@@H](CNS(=O)(=O)c2cccnc2)C1`, in that order: 5% and -0.73.
Regarding `CCc1cc(C(=O)Nc2n[nH]c(Cc3cccc(F)c3)n2)[nH]n1`, the “% Inhibition” value is reported as -9% and the Z score came to 1.07.
As for `CN1CCCC[C@@H]1CCn1ccc2ccccc2c1=O`, the “% Inhibition” value is -24% and the Z score was 2.4.
Regarding `CCc1onc(C)c1CS(=O)(=O)Cc1ccsc1Cl`, the “% Inhibition” value came to 7% and the Z score is -1.08.
For `Cc1cnc(-c2cccc(NC(=O)NCCN(C)C)c2)o1`, in that order: -2% and 0.29.
For `C[C@@H](c1ccccc1)n1c(NC(=O)c2ccco2)c(S(=O)(=O)c2ccccc2)c2nc3ccccc3nc21`, in that order: 2% and -0.19.
`CC(C)Oc1ccccc1CCNC(=O)[C@@H]1CC[C@H](C(=O)O)C1`: the “% Inhibition” value was -1% and the Z score came to 0.1.
The matching figures for `O=C(c1ccn(C(F)F)n1)N1CCC[C@H](CN2CCCCC2)C1`: -15% and 2.27.
For `O=C(Nc1cc(C(F)(F)F)c[nH]c1=O)C(=O)NC(C1CC1)C1CC1`, in that order: -4% and 0.51.
For `COc1ccc(-c2nc(NCCN3CCCCC3)nc3nn(Cc4ccccc4)c(N)c23)cc1OC`, in that order: 2% and -0.41.
Take `CN(C(=O)c1ccncc1Cl)c1ccc2c(c1)CCO2`: the “% Inhibition” value is on record as -10% and the Z score was found to be 0.94.
For `Cc1ccnc(C)c1NC(=O)[C@H]1CCN(CC(F)(F)F)C1`, in that order: -2% and 0.32.
`C=CCN(CC#Cc1ccccc1)C(=O)c1cc2n(n1)CCCN(C)C2`: the “% Inhibition” value is on record as -9% and the Z score was 1.65.
With `O=C1CN(C(=O)Cn2cccn2)c2cc(Br)ccc2N1`, the “% Inhibition” value is -3% and the Z score is recorded as 0.45.
For `COC[C@@H]1CN(c2ccncn2)C[C@H]1C(=O)NCC(F)(F)F`, in that order: -11% and 1.64.
Turning to `O=c1[nH]c(=O)n(Cc2cccnc2)c2c1C(C(F)(F)F)(C(F)(F)F)NC(c1ccccc1)=N2`, the “% Inhibition” value (2 µM) is 1% and -8%.
Regarding `COc1cccc(CO[C@H]2CN(CC(C)C)C(=O)CN(C(=O)c3snnc3C)C2)c1`, the “% Inhibition” value was -9% and the Z score was determined as 1.24.
For `CC(C)[C@@H](CO)NCc1noc(C2CC2)n1`, in that order: -5% and 0.67.
For `O=C(c1cccc2[nH]ccc12)N1CCC2(CC1)NC(c1ccc(Cl)cc1)=NO2`, in that order: -21% and 1.92.
In the case of `Cc1nc(CC(=O)N[C@H]2CC=CC[C@@H]2C(N)=O)cs1`, the “% Inhibition” value was -6% and the Z score worked out at 0.67.
As to `C#CCN1CCC[C@H]1C(=O)NCCc1ccccn1`, the “% Inhibition” value came to 7% and the Z score is -0.78.
The matching figures for `OC(CNC1CCc2c(Br)cccc21)c1ccncc1` (configuration not stated): -13% and 1.3.
The matching figures for `O=C(Cc1n[nH]c(=O)c2ccccc12)NCC[C@H]1CCCO1`: -20% and 2.68.
The matching figures for `COCC1(n2cnc3nccnc3c2=O)CCCC1`: -11% and 2.07.
Consider `c1cncc(-c2nnc3n2C2(CCCCC2)Cc2ccccc2-3)c1`, for which the “% Inhibition” value is -5% and the Z score was 0.64.
On to `Cn1cc([C@@H]2[C@@H](CNC(=O)Cn3cc(C4CC4)cn3)CC(=O)N2C(C)(C)C)cn1`, for which the “% Inhibition” value is reported as 0% and the Z score stood at 0.07.
On to `CCC1CN(C(=O)CCc2c(C)nn(C)c2C)CC1N1CCOCC1` (configuration not stated), for which the “% Inhibition” value is -11% and the Z score is listed as 0.98.
Take `CCc1nnc(-c2[nH]c(C)c(S(=O)(=O)Nc3ccc(F)c(C)c3)c2C)o1`: the “% Inhibition” value stood at 2% and the Z score was -0.24.

These data come from ChEMBL document CHEMBL4888484, “Replenishing the malaria drug discovery pipeline: Screening and hit evaluation of the MMV Hit Generation Library 1 (HGL1) against asexual blood stage Plasmodium falciparum ,using a nano luciferase reporter read-out” (2022).
